Results are given in words; binding and its absence hold for the method and conditions named. For some of these results: In cells and extracts the contact can be indirect. Some entries that bind do so weakly or less than the wild type. For some of these results: Where a sequence is shown, tags or fusion partners need not be part of it.

Chains of the proteins cited; added tags and fusions are not shown.
UniProt Q6RET7: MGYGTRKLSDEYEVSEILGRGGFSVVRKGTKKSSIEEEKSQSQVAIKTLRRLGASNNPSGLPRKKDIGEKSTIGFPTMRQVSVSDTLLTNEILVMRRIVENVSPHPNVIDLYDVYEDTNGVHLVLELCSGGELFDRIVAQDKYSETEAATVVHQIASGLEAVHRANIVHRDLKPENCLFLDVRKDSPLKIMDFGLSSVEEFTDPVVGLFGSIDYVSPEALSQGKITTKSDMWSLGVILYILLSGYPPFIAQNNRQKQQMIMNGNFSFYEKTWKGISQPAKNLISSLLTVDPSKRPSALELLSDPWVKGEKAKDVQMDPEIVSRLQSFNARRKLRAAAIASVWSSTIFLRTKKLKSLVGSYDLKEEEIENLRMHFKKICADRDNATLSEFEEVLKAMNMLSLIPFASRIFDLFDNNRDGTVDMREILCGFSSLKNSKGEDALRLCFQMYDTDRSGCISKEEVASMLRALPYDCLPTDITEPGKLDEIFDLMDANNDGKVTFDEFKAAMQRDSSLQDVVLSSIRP
UniProt Q5NE24: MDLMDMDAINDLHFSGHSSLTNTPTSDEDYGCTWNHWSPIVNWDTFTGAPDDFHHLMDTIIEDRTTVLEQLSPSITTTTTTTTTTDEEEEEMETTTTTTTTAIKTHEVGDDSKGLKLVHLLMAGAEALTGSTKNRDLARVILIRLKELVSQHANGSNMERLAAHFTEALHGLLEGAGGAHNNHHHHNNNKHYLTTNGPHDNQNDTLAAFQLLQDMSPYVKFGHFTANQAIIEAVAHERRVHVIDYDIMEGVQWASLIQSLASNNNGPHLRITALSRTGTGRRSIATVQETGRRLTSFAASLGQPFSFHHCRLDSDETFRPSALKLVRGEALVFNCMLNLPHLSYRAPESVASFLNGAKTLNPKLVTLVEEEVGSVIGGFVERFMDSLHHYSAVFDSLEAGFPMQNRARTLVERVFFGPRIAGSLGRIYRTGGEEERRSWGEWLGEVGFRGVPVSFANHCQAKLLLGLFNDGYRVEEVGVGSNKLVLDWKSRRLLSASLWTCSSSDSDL

The target of assay [1] is calcium and calmodulin-dependent protein kinase (CCaMK) (M. truncatula) (UniProt Q6RET7). As to the kind of experiment: two-hybrid; yeast AH109, pGBKT7GW and pGADT7GW fusions; growth on SD/-Leu-Trp-Ade-His with 30 or 60 mM 3AT.
In assay [2] the target is T1, IPD3 (M. truncatula) (UniProt A7TUE1).
T1 sequence: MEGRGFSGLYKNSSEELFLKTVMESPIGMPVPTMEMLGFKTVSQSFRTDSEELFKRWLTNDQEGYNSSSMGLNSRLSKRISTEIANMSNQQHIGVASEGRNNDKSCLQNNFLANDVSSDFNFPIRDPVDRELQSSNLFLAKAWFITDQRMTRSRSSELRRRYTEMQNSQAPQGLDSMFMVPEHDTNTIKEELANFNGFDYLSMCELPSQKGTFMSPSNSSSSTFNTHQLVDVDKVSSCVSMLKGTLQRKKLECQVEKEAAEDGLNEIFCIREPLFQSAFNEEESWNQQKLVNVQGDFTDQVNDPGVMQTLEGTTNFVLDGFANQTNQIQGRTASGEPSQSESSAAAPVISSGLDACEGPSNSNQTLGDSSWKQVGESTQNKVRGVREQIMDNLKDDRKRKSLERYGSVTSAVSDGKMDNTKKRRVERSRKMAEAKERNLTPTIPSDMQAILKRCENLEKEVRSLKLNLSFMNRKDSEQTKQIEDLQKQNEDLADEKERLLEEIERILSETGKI
Described as above.

Assay [3] addresses NSP2 (M. truncatula) (UniProt Q5NE24). The assay is described as above.
The target of assay [4] is NSP2-cYFP (M. truncatula) (UniProt Q5NE24). As to the kind of experiment: split reporter; BiFC with nYFP and cYFP fusions in Arabidopsis mesophyll protoplasts; confocal microscopy.
Assay [5] addresses T2, IPD3-cYFP (M. truncatula) (UniProt A7TUE1).
T2 sequence: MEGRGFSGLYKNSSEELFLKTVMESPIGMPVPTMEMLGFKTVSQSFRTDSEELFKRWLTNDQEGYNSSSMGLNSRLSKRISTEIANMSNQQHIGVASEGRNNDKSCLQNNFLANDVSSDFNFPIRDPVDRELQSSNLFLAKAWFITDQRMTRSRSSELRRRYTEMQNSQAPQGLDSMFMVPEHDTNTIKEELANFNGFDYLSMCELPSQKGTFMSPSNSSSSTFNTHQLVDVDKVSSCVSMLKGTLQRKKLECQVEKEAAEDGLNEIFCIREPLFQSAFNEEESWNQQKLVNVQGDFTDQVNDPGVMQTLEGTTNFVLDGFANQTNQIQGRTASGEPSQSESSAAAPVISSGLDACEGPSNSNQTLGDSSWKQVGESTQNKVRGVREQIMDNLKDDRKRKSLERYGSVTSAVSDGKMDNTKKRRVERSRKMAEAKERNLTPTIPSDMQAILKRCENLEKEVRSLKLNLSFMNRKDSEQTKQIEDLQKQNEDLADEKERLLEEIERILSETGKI
The description is as above.

In assay [6] the target is Flag-tagged NSP2 (M. truncatula) (UniProt Q5NE24). As to the kind of experiment: co-IP; Flag-NSP2, Myc-DELLA and HA-IPD3 co-expressed in N. benthamiana leaves (also without MtDELLA); anti-flag M2 agarose; 50 mM Tris-HCl pH 7.5, 150 mM NaCl, 1 mM EDTA, 0.2% Triton X-100; 4 °C.
The target of assay [7] is calcium and calmodulin-dependent protein kinase (CCaMK) (M. truncatula) (UniProt Q6RET7). As to the kind of experiment: yeast three-hybrid; BD and AD fusions with a third protein from pBridge; liquid beta-galactosidase assay; 0.005 mM Met in the selection medium.
Assay [8] deals with CCaMK-S-tag (M. truncatula) (UniProt Q6RET7). Description: co-IP; three proteins co-expressed in E. coli Rosetta; anti-S-tag antibody and Protein A agarose; 150 mM NaCl, 50 mM Tris-HCl pH 7.5, 0.1% Triton X-100; blot with anti-HIS.

B1: MtDELLA2 (protein, UniProt A0A396GMX6 1-533)
chain: MKREHKLEHEDMSSGSGKSGVCWEDDGGGMDELLAVVGYKVKSSDMAEVAQKLEQLEQAMMGNNFHDHDESTIAQHLSNDTVHYNPSDISNWLQTMLSNFDPQPNNPSVNSDDNDLNAIPGKAIYAADEFTSRKRVKRNESVTVTTESTTTRPIMVVETQEKGIRLVHSLMACAEAVEQNNLKMAEALVKQIGYLAVSQEGAMRKVATYFAEGLARRIYGVFPQHSVSDSLQIHFYETCPNLKFAHFTANQAILEAFQGKSSVHVIDFSINQGMQWPALMQALALRPGGPPAFRLTGIGPPASDNSDHLQQVGWRLAQFAQTIHVQFEYRGFVANSLADLDASMLELRSPETESVAVNSVFELHKLNARPGALEKVFSVIRQIRPEIVTVVEQEANHNGPAFLDRFTESLHYYSTLFDSLEGSSVEPQDKAMSEVYLGKQICNVVACEGTDRVERHETLNQWRNRFNSAGFSPVHLGSNAFKQASMLLALFAGGDGYKVEENDGCLMLGWHTRPLIATSAWKLAAANSVVVSH
On to B1, for which the binding entry was “no binding” in assay [1], “binds” in assay [2] and “binds” in assay [3].

B2: MtDELLA2-nYFP (protein, UniProt A0A396GMX6 1-533)
chain: MKREHKLEHEDMSSGSGKSGVCWEDDGGGMDELLAVVGYKVKSSDMAEVAQKLEQLEQAMMGNNFHDHDESTIAQHLSNDTVHYNPSDISNWLQTMLSNFDPQPNNPSVNSDDNDLNAIPGKAIYAADEFTSRKRVKRNESVTVTTESTTTRPIMVVETQEKGIRLVHSLMACAEAVEQNNLKMAEALVKQIGYLAVSQEGAMRKVATYFAEGLARRIYGVFPQHSVSDSLQIHFYETCPNLKFAHFTANQAILEAFQGKSSVHVIDFSINQGMQWPALMQALALRPGGPPAFRLTGIGPPASDNSDHLQQVGWRLAQFAQTIHVQFEYRGFVANSLADLDASMLELRSPETESVAVNSVFELHKLNARPGALEKVFSVIRQIRPEIVTVVEQEANHNGPAFLDRFTESLHYYSTLFDSLEGSSVEPQDKAMSEVYLGKQICNVVACEGTDRVERHETLNQWRNRFNSAGFSPVHLGSNAFKQASMLLALFAGGDGYKVEENDGCLMLGWHTRPLIATSAWKLAAANSVVVSH
Regarding B2, the binding entry in assay [4] and in assay [5] was “binds” in each case.

B3: Myc-tagged DELLA2 (protein, UniProt A0A396GMX6 1-533)
chain: MKREHKLEHEDMSSGSGKSGVCWEDDGGGMDELLAVVGYKVKSSDMAEVAQKLEQLEQAMMGNNFHDHDESTIAQHLSNDTVHYNPSDISNWLQTMLSNFDPQPNNPSVNSDDNDLNAIPGKAIYAADEFTSRKRVKRNESVTVTTESTTTRPIMVVETQEKGIRLVHSLMACAEAVEQNNLKMAEALVKQIGYLAVSQEGAMRKVATYFAEGLARRIYGVFPQHSVSDSLQIHFYETCPNLKFAHFTANQAILEAFQGKSSVHVIDFSINQGMQWPALMQALALRPGGPPAFRLTGIGPPASDNSDHLQQVGWRLAQFAQTIHVQFEYRGFVANSLADLDASMLELRSPETESVAVNSVFELHKLNARPGALEKVFSVIRQIRPEIVTVVEQEANHNGPAFLDRFTESLHYYSTLFDSLEGSSVEPQDKAMSEVYLGKQICNVVACEGTDRVERHETLNQWRNRFNSAGFSPVHLGSNAFKQASMLLALFAGGDGYKVEENDGCLMLGWHTRPLIATSAWKLAAANSVVVSH
In the case of B3, the binding result in assay [6] was “binds”.

B4: IPD3 (protein, UniProt A7TUE1 1-513)
chain: MEGRGFSGLYKNSSEELFLKTVMESPIGMPVPTMEMLGFKTVSQSFRTDSEELFKRWLTNDQEGYNSSSMGLNSRLSKRISTEIANMSNQQHIGVASEGRNNDKSCLQNNFLANDVSSDFNFPIRDPVDRELQSSNLFLAKAWFITDQRMTRSRSSELRRRYTEMQNSQAPQGLDSMFMVPEHDTNTIKEELANFNGFDYLSMCELPSQKGTFMSPSNSSSSTFNTHQLVDVDKVSSCVSMLKGTLQRKKLECQVEKEAAEDGLNEIFCIREPLFQSAFNEEESWNQQKLVNVQGDFTDQVNDPGVMQTLEGTTNFVLDGFANQTNQIQGRTASGEPSQSESSAAAPVISSGLDACEGPSNSNQTLGDSSWKQVGESTQNKVRGVREQIMDNLKDDRKRKSLERYGSVTSAVSDGKMDNTKKRRVERSRKMAEAKERNLTPTIPSDMQAILKRCENLEKEVRSLKLNLSFMNRKDSEQTKQIEDLQKQNEDLADEKERLLEEIERILSETGKI
Turning to B4, in assay [7], the binding entry is on record as “binds”.

B5: HIS-IPD3 (protein, UniProt A7TUE1 1-513)
chain: MEGRGFSGLYKNSSEELFLKTVMESPIGMPVPTMEMLGFKTVSQSFRTDSEELFKRWLTNDQEGYNSSSMGLNSRLSKRISTEIANMSNQQHIGVASEGRNNDKSCLQNNFLANDVSSDFNFPIRDPVDRELQSSNLFLAKAWFITDQRMTRSRSSELRRRYTEMQNSQAPQGLDSMFMVPEHDTNTIKEELANFNGFDYLSMCELPSQKGTFMSPSNSSSSTFNTHQLVDVDKVSSCVSMLKGTLQRKKLECQVEKEAAEDGLNEIFCIREPLFQSAFNEEESWNQQKLVNVQGDFTDQVNDPGVMQTLEGTTNFVLDGFANQTNQIQGRTASGEPSQSESSAAAPVISSGLDACEGPSNSNQTLGDSSWKQVGESTQNKVRGVREQIMDNLKDDRKRKSLERYGSVTSAVSDGKMDNTKKRRVERSRKMAEAKERNLTPTIPSDMQAILKRCENLEKEVRSLKLNLSFMNRKDSEQTKQIEDLQKQNEDLADEKERLLEEIERILSETGKI
With B5, the binding entry in assay [8] is reported as “binds”.

B6: MtDELLA1 (protein, UniProt A0A396IUP1 1-594)
chain: MKREHQESFGGGVISNNNKTNTNHLNSSKNINFGECSSMQNTNTKQNMWREEKETNGGGMDELLAALGYKVRSSDMADVAQKLEQLEMVMGSAQEEGINHLSSDTVHYDPTDLYSWVQTMLTELNPDSSQINDPLASLGSSSEILNNTFNDDSEYDLSAIPGMAAYPPQEENTAAKRMKTWSEPESEPAVVMSPPPAVENTRPVVLVDTQETGVRLVHTLMACAEAIQQKNLKLAEALVKHISLLASLQTGAMRKVASYFAQALARRIYGNPEETIDSSFSEILHMHFYESSPYLKFAHFTANQAILEAFAGAGRVHVIDFGLKQGMQWPALMQALALRPGGPPTFRLTGIGPPQADNTDALQQVGWKLAQLAQTIGVQFEFRGFVCNSIADLDPNMLEIRPGEAVAVNSVFELHTMLARPGSVEKVLNTVKKINPKIVTIVEQEANHNGPVFVDRFTEALHYYSSLFDSLEGSNSSSNNSNSNSTGLGSPSQDLLMSEIYLGKQICNVVAYEGVDRVERHETLTQWRSRMGSAGFEPVHLGSNAFKQASTLLALFAGGDGYRVEENNGCLMLGWHTRSLIATSAWKLPQNESK
Turning to B6, the binding entry in assay [1] is reported as “no binding”; in assay [2] it was “binds”; in assay [3], “binds”.

B7: MtDELLA1-nYFP (protein, UniProt A0A396IUP1 1-594)
chain: MKREHQESFGGGVISNNNKTNTNHLNSSKNINFGECSSMQNTNTKQNMWREEKETNGGGMDELLAALGYKVRSSDMADVAQKLEQLEMVMGSAQEEGINHLSSDTVHYDPTDLYSWVQTMLTELNPDSSQINDPLASLGSSSEILNNTFNDDSEYDLSAIPGMAAYPPQEENTAAKRMKTWSEPESEPAVVMSPPPAVENTRPVVLVDTQETGVRLVHTLMACAEAIQQKNLKLAEALVKHISLLASLQTGAMRKVASYFAQALARRIYGNPEETIDSSFSEILHMHFYESSPYLKFAHFTANQAILEAFAGAGRVHVIDFGLKQGMQWPALMQALALRPGGPPTFRLTGIGPPQADNTDALQQVGWKLAQLAQTIGVQFEFRGFVCNSIADLDPNMLEIRPGEAVAVNSVFELHTMLARPGSVEKVLNTVKKINPKIVTIVEQEANHNGPVFVDRFTEALHYYSSLFDSLEGSNSSSNNSNSNSTGLGSPSQDLLMSEIYLGKQICNVVAYEGVDRVERHETLTQWRSRMGSAGFEPVHLGSNAFKQASTLLALFAGGDGYRVEENNGCLMLGWHTRSLIATSAWKLPQNESK
Turning to B7, the binding entry in assay [4] and in assay [5] was “binds” throughout.
